Laboratory results: the supplement of paper PMC5499739
In all, about 16,000 sequences were measured (“Z-score”: median about -0.37, highest 2% from about 3.1 on). Some of the results follow.

These sequences were tested on RBM10 RRM1-ZnF-RRM2 (GST-tagged construct) (assay: RNAcompete 7-mer binding Z-score; higher = stronger binding preference).
How it was run: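 A designed pool of 241 399 RNAs, each up to 41 nt and transcribed from microarray-derived DNA templates, was used at 1.5 nmol with 20 pmol of GST-tagged RBM10 constructs. The mixture, in 1 ml Hepes pH 7.8 buffer with KCl, NaCl, glycerol, DTT, BSA and glutathione Sepharose beads, was held 30 min at 4°C and then washed four times for 2 min at 4°C. Bound RNA was read out by microarray hybridisation, and enrichment of each heptamer motif was scored as a one-sided Z-score over the probes carrying it.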

| Sequence | RNAcompete 7-mer binding Z-score |
| --- | --- |
| AGUAUUA | -0.216 |
| CGGAGGC | 1.24 |
| CCUGCAG | -0.788 |
| AUACCGU | -0.482 |
| CGGCGUC | 0.0204 |
| UGCUCUC | -0.741 |
| GCCACGC | -0.366 |
| GCAAAUC | -0.358 |
| CGGCCCA | -0.617 |
| CCUUGGA | -0.475 |
| UCCUCUU | -0.613 |
| GUGCAAG | 0.844 |
| GAGUUUA | -0.0488 |
| CACUACG | -0.409 |
| CGCUACA | -0.621 |
| CGCAGAC | -0.322 |
| CCUCUUA | -0.843 |
| GCUAAGA | -0.187 |
| CGGAUAC | 1.07 |
| CUCAUCC | -0.836 |
| GGAUCAU | 0.749 |
| AGCCUCC | -0.759 |
| GGAGAGU | 1.69 |

| Sequence | RNAcompete 7-mer binding Z-score |
| --- | --- |
| CUCGUUC | -0.61 |
| CUGAAGG | 0.902 |
| UCUUUAG | -0.723 |
| AUUGGGU | 2.74 |
| CCGGGUC | 0.538 |
| UAGGUAG | 2.27 |
| AAUGACA | 0.0969 |
| AGGCCCA | -0.846 |
| GUUUCUA | -0.537 |
| CACUCGA | -0.719 |
| CAUAGUC | -0.548 |
| AAAGUGC | -0.0197 |
| UCCCAUU | -0.843 |
| AACCCGA | -0.737 |
| CCGUGGA | 0.0896 |
| UUGUUUU | -0.366 |
| CAUUGAA | -0.311 |
| AGUUUCG | -0.453 |
| CCCUAGC | -0.788 |
| CGAACCA | -0.453 |
| AACAAGU | -0.125 |
| UGGAUUC | 0.126 |
| GGUAUUU | 0.177 |

| Sequence | RNAcompete 7-mer binding Z-score |
| --- | --- |
| AGGCAUU | -0.0889 |
| AGCUGCU | -0.559 |
| GCCACCC | -0.89 |
| UACCCGG | -0.231 |
| GCUUCAC | -0.686 |
| GAAUCCA | -0.366 |
| CAUUAUG | -0.428 |
| UGGACUC | -0.136 |
| CAGACAG | 0.0896 |
| UAGGAGA | 1.78 |
| UAGCCGA | -0.573 |
| UGCCCUA | -0.93 |
| UUGUCCA | -0.828 |
| UGGGGUG | 4.14 |
| CCCUUAG | -0.777 |
| CCGGUGU | 0.0823 |
| AGCUCAA | -0.712 |
| GUUUCCG | -0.475 |
| AUCGGAG | 0.884 |
| GCGCACC | -0.395 |
| UUCGUCA | -0.402 |
| CCGUAAU | -0.643 |
| CGGAAAU | 0.319 |

| Sequence | RNAcompete 7-mer binding Z-score |
| --- | --- |
| ACCGAAC | -0.544 |
| GUAGGAG | 3.78 |
| ACUGUGU | -0.42 |
| AGACUGG | 0.654 |
| CCGACUU | -0.897 |
| UCAGACG | -0.0343 |
| GAAGACC | -0.256 |
| AGUAUCA | -0.22 |
| CUGUUGC | -0.803 |
| ACUGUGG | 0.796 |
| CUCCGUU | -0.905 |
| AAAACCC | -0.846 |
| UUAUCGC | -0.927 |
| ACGUCUC | -0.708 |
| AUCGGAU | 0.253 |
| GAGCUAC | -0.224 |
| UGACAUA | -0.326 |
| AGGCCGG | 0.235 |
| GCGGUCC | -0.271 |
| CAAUUGU | -0.734 |
| AUGGAUG | 2.59 |
| GGGGUAG | 4.58 |
| AACGCUA | -0.453 |

| Sequence | RNAcompete 7-mer binding Z-score |
| --- | --- |
| UAAUGGU | 0.814 |
| GUACCUG | -0.439 |
| CAUCGUG | -0.173 |
| CUCUCCG | -0.894 |
| GAGCGCG | 0.297 |
| CGAAGUA | 0.101 |
| CGUGAGC | -0.242 |
| CGCAACU | -0.825 |
| UCGCAAU | -0.577 |
| CUCUCCA | -0.799 |
| ACGACGC | 0.00216 |
| CCCUAUC | -0.894 |
| UGUUUUU | -0.46 |
| GGGACAU | 1.96 |
| CGACGUU | -0.679 |
| GAGUGGA | 3.07 |
| GUCCUAC | -0.697 |
| CCGAUGA | -0.318 |
| GCCUGAC | -0.694 |
| CAAUCUC | -0.81 |
| UAUCCGC | -0.883 |
| AAGGCCC | -0.249 |
| UCCUCUG | -0.694 |

| Sequence | RNAcompete 7-mer binding Z-score |
| --- | --- |
| CGUCAUC | -0.599 |
| UAAAAGA | -0.111 |
| AUUAUCA | -0.464 |
| UUUGUUC | -0.632 |
| UAUGGUU | 1.29 |
| AGCACUU | -0.526 |
| GUCAUCG | -0.118 |
| UGUUUAG | -0.286 |
| AGAUAAG | 0.989 |
| GUUGCUU | -0.577 |
| GCUUACU | -0.734 |
| AUACGGG | 2.14 |
| GGCGUGC | 0.92 |
| GACACAG | 0.61 |
| UAGACGC | -0.333 |
| CAGCCUC | -0.741 |
| AGGCGGA | 1.7 |
| GCGUUUA | -0.551 |
| UAGCCGU | -0.479 |
| AUGCGAA | 0.228 |
| UGUGUGG | 1.79 |
| GACUCGC | -0.774 |
| AAGUGCG | 0.698 |

| Sequence | RNAcompete 7-mer binding Z-score |
| --- | --- |
| UAUCGUG | -0.0561 |
| GGUCUGG | 0.563 |
| GUGGAGA | 2.57 |
| UCCUCCC | -0.592 |
| AAGUUGU | -0.0343 |
| UUCAACA | -0.373 |
| GAUAACC | -0.417 |
| AUUGGGG | 3.16 |
| AGGUCAC | -0.195 |
| UUCUUUU | -0.763 |
| CAAAGUC | -0.337 |
| CGUUUGC | -0.766 |
| UGACACU | -0.675 |
| UGCACUA | -0.57 |
| UGGACCU | -0.0743 |
| CCGCUUU | -1 |
| GGGACUA | 1.33 |
| GCGAACG | 1.05 |
| UUAGCGC | -0.617 |
| CGCGCGG | 1.01 |
| CCUUCAA | -0.814 |
| AUCUUUA | -0.828 |
| UACGUAC | -0.227 |

| Sequence | RNAcompete 7-mer binding Z-score |
| --- | --- |
| CGACGGA | 0.949 |
| CUCCCGC | -0.763 |
| GGCCUAA | -0.078 |
| GACCUUC | -1.01 |
| UACGUCG | -0.202 |
| UAGGCAC | 0.417 |
| CGACCGU | -0.592 |
| GUCGCCG | -0.34 |
| AGUUGCA | 0.144 |
| GGCUUCC | -0.548 |
| UUGGGAC | 1.75 |
| GGGUCAC | 1.67 |
| CUGGCAU | -0.617 |
| GCCCGGU | -0.486 |
| GAUUUGU | -0.296 |
| CAUCAGC | -0.719 |
| UCUGAGU | -0.497 |
| CCAAUGC | -0.544 |
| AGUCGGC | 0.301 |
| AGAGACC | -0.774 |
| GCGUAGC | 0.264 |
| CGGAUCU | -0.457 |
